# Laboratory results as given in PubChem BioAssay AID1240 (Sanford-Burnham Center for Chemical Genomics, 2008).
# Out of some 50,000 compounds screened, about 800 (1.6%) showed an effect of 50% or more. The list shows a part of the results.
# Molecular target: Bcl-2-like protein 10 (Homo sapiens) (UniProt Q9HD36)
# Experiment: TR3 peptide-Bcl-B binding displacers, biochemical primary FP assay, phenotype converters (AID 1240);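 also: 0% = Bcl-B with tracer peptide and DMSO and 100% = tracer peptide lacking Bcl-B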
# Details: GST-Bcl-B / FITC-TR3 peptide fluorescence polarization; stronger effect = higher value; compound at 3.75 mg/L
# Chain of UniProt Q9HD36 (Q9HD36 whole entry, looked up): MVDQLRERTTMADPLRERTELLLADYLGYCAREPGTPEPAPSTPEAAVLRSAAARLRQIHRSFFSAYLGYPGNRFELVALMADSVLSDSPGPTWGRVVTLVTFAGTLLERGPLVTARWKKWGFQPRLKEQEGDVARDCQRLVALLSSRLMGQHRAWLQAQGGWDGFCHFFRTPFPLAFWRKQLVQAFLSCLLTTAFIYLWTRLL
row,SMILES,displacement
1,O=C(COc1cccc2ccccc12)NCc1ccco1,3.6%
2,C[C@@H]1O[C@@H](Nc2ccc(Cl)cc2[N+](=O)[O-])[C@H](O)[C@H](O)[C@H]1O,54.7%
3,COCCNC(=O)CC12CC3CC(C1)CC(CC(=O)NCCOC)(C3)C2,4.2%
4,Cc1cc(OCC(=O)Nc2ccc3ccccc3c2)cc(C)c1Cl,9.6%
5,COC(=O)C1=C(C(=O)OC)C2(OC1c1ccccc1C)C(=O)c1ccccc1C2=O (stereo unspecified),-3.5%
6,O=C1CCCC/C1=C\Nc1ccc([N+](=O)[O-])cc1Br,4.4%
7,COc1ccc(N2C(=O)NC(=O)/C(=C/c3ccc(-c4ccc(F)cc4)o3)C2=O)cc1,100%
8,CC1=C(C(=O)OC(C)C)C(c2ccc(Cl)cc2)NC(=O)N1 (stereo unspecified),-2.1%
9,O=C(N1CCCCC1)C12CC3CCC(CC(C3)C1)C2,6.3%
10,COc1ccccc1NC(=O)C1=C(C)NC(SCC(=O)c2ccccc2)=C(C#N)C1c1ccccc1Cl (stereo unspecified),-3.5%
11,COc1ccccc1CNC(=O)c1cc(Cl)ccc1Cl,10%
12,O=C(O)C1C2CCC(C2)C1C(=O)Nc1nc(-c2ccc(Cl)cc2)cs1 (stereo unspecified),7.1%
13,CCOC(=O)C1=C(c2ccccc2)N=c2s/c(=C\c3ccc(O)c(OC)c3)c(=O)n2C1c1ccc(OC)cc1 (stereo unspecified),104%
14,CCOc1ccccc1N1CCN(C(=O)c2ccc([N+](=O)[O-])cc2Cl)CC1,1.5%
15,O=C(Nc1ccc(NC(=O)c2ccc3ccccc3c2)cc1)c1ccccc1,11.4%
16,O=C(CN(Cc1ccccc1)S(=O)(=O)c1ccccc1)NCc1ccc(Cl)cc1,8.5%
17,COc1ccc(OC)c(/C=C2N=C(/C=C/c3ccccc3)OC/2=O)c1,9.6%
18,COc1ccc(C2Nc3ccccc3C(=O)N2Cc2ccco2)cc1COc1ccc(F)cc1 (stereo unspecified),10.3%
19,C=CCNC(=O)C(=O)N/N=C/c1ccc2c(c1)OCCO2,7.1%
20,CC(=O)C1=C(O)C(=O)N(CC2CCCO2)C1c1ccccc1 (stereo unspecified),10%
21,C#CCSc1nc2ccccc2n1C(=O)c1cccs1,22.7%
22,CN(C)c1ccc(/C=C2/C(=O)ON=C2c2ccccc2)cc1Br,-46.9%
23,NC(=O)c1cc(NC(=O)c2ccc(Cl)c(Cl)c2)cc(C(N)=O)c1,-8.4%
24,O=C(NC(NC(=S)Nc1ccccc1Cl)C(Cl)(Cl)Cl)c1ccccc1F (stereo unspecified),10%

row,SMILES,displacement
1,CC(C)Cc1nnc(NC(=O)Nc2ccc(Cl)c(Cl)c2)s1,3.9%
2,CC(C)(C)Nc1ncnc(NC(C)(C)C)c1[N+](=O)[O-],-1.3%
3,C=CCCCC(=O)Nc1ccccc1C,14.5%
4,Cc1cccc(CN2CCN(C(=O)c3ccccc3F)CC2)c1,-9%
5,CC1=NN(C(=O)c2ccccc2Cl)C(O)(c2ccccc2)C1 (stereo unspecified),1.1%
6,Cc1cccc(C(=O)Oc2ccc(/C=C3/SC(=S)NC3=O)cc2)c1,6%
7,CCCC(=O)Nc1c(C)n(C)n(-c2ccccc2)c1=O,-5.9%
8,O=S(=O)(Nc1ccccn1)c1ccc(Br)cc1,-12.9%
9,O=C1NC(=S)NC(=O)C1=Cc1ccc(OCc2ccccc2Cl)cc1,0%
10,Cc1nc2ccc(C(=O)O)cc2c2c1CC(C)O2 (stereo unspecified),-24.8%
11,COc1ccc(C(=O)CSc2ccccc2C(=O)O)cc1,-5.5%
12,COc1cc(C(=O)NC(NC(=S)Nc2ccccc2C)C(Cl)(Cl)Cl)cc(OC)c1OC (stereo unspecified),8.7%
13,CC(NC(=O)c1c(NC(=O)c2ccco2)sc2c1CCCCC2)c1ccccc1 (stereo unspecified),-6.1%
14,CCc1ccc(S(=O)(=O)Nc2ccc(C)cn2)cc1,3.5%
15,CCOc1ccc(/C=C(\C#N)C(=O)NCc2ccco2)cc1OC,-11.5%
16,CNC(=O)c1cc2cc(OC)ccc2n1CCN(C)C,-11.4%
17,C=CCN(CC=C)CCCCOc1cccc(C)c1,-11.7%
18,Cc1cccc(N2C(=O)C3CC=CCC3C2=O)n1 (stereo unspecified),12.8%
19,CCOc1ccc2oc(C)c(C(=O)OC)c2c1,10.3%
20,Fc1cccc(Cl)c1CSc1nc2ccccc2[nH]1,6.9%
21,O=C(CC(=S)c1cccs1)c1ccncc1,-35.3%
22,COc1cc(C(=O)N2CCN(C)CC2)c([N+](=O)[O-])cc1OC,-0.1%
23,CC1(c2ccc(Br)cc2)NN=C(c2ccccc2)S1 (stereo unspecified),-5.6%
24,Cc1ccc(N2CCN(/N=C\c3cccc(Br)c3)CC2)cc1,-3.9%

row,SMILES,displacement
1,CCOC(=O)C1=C(O)/C(=C/c2ccc(C)o2)SC1=Nc1ccccc1,-4.6%
2,COc1cccc(NC(=O)C(=O)N/N=C/c2ccc(OC)cc2OC)c1,-1.6%
3,O=C1NC(=S)N(c2cccc(Cl)c2)C(=O)/C1=C\C=C\c1ccccc1[N+](=O)[O-],-1.8%
4,O=C(c1cc(N2CCCCC2)c(F)cc1[N+](=O)[O-])N1CCCCC1,9.9%
5,Cc1ccc(C(=O)Nc2sc3c(c2C#N)CCCCCC3)o1,4.7%
6,CCOc1ccccc1N1CCN(C(=O)c2cc(-c3cccc(C)c3)nc3ccccc23)CC1,-4.4%
7,COC(=O)C1=C(C)NC(C)=C(C(=O)OC)C1c1ccc(-c2ccc(Cl)cc2Cl)o1,3.8%
8,COC(=O)c1ccc(NC(=O)CC(=O)Nc2ccc(C(=O)OC)cc2)cc1,2.1%
9,CCCCOc1ccc(C=C2C(=O)N(C)C(=O)N(C)C2=O)cc1,8.8%
10,COc1ccc(C2c3c(nn(-c4ccccc4)c3C)CC(C)(O)C2C(C)=O)cc1OC (stereo unspecified),1.1%
11,CCN(CC)C(=O)c1sc(NC(=O)c2ccc(C(C)(C)C)cc2)c(C(=O)OC)c1C,4.7%
12,Cc1cccc(NC(=O)c2ccncc2)c1,3.4%
13,CCN1C(=O)/C(=C\c2ccc(N(C)C)cc2)SC1=S,-10.2%
14,COc1ccc(/C(C)=N/N2C(=O)c3ccccc3C2=O)cc1,-7.6%
15,O=C(NC1CCCCC1Cc1ccco1)c1cccc2ccccc12 (stereo unspecified),5.2%
16,CCOC(=O)c1ccc(NS(=O)C23CC4CC(CC(C4)C2)C3)cc1 (stereo unspecified),18.5%
17,COC(=O)Cn1c2ccccc2n2nc(C)nc12,-1.7%
18,COc1ccc(OC)c(C2/C(=C(\O)c3ccccc3)C(=O)C(=O)N2Cc2cccnc2)c1 (stereo unspecified),7.4%
19,Cc1ccc(C(=O)NCC2CCCO2)cc1[N+](=O)[O-] (stereo unspecified),-10%
20,O=C1N=c2ccc(Cl)cc2=C1c1sc(=S)n(Cc2ccccc2)c1O,-17.4%
21,O=C1N=C(N2CCCC2)S/C1=C\c1cccc(O)c1,-15.6%
22,O=C(O)c1ccc2c(c1)C(=O)N(c1cccc(C(=O)Nc3cccc(Cl)c3)c1)C2=O,4.3%
23,CS(=O)(=O)N1CCN(Cc2cccc3ccccc23)CC1,12.7%
